# Laboratory results from the supplement of paper PMC3334620.
# Over roughly 33,000 sequences, “E-score (-0.5 to 0.5)” has its median near -0.035; the highest 2% begin near 0.34. Some of the results follow.
# Target: T1, Mot3 (UniProt P54785)
# T1 sequence: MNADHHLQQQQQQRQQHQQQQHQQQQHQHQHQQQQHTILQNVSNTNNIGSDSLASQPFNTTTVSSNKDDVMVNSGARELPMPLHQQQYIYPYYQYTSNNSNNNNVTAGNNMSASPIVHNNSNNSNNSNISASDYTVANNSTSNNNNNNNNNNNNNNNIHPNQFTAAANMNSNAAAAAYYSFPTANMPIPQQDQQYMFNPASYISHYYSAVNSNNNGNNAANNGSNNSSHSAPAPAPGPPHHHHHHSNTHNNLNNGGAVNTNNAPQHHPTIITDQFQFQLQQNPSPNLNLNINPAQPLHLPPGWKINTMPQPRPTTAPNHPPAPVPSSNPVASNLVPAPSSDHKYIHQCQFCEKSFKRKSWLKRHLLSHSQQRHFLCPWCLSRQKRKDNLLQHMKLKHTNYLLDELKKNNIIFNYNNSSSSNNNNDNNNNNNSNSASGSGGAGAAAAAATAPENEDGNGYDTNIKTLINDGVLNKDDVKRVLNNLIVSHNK
# Assay: PBM E-score (8-mer binding enrichment) (E-score (-0.5 to 0.5)); higher = stronger / more preferred TF binding; most listed sequences are background and not binding sites
# Conditions: protein concentration: 200 nM; construct: GST-full length
# In short: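 Each ungapped eight-base word and its reverse complement, pooled, received an E-score from the Universal PBM Analysis Suite. Underlying scans, normalised with masliner, recorded fluorescent anti-GST bound to GST-tagged yeast transcription factors. These were applied at about 100-200 nM to universal all-10-mer Agilent arrays double-stranded by primer extension.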
row,Sequence,PBM E-score
1,AATGATAC,0.0498
2,CACTTCAA,0.121
3,CGAGTACC,0.13
4,AGGCGCAC,0.251
5,ACGGCCGC,-0.195
6,GGAAGGGA,-0.292
7,AGAAGGGA,-0.376
8,GGAGGTTA,-0.0376
9,GCCGAGCA,-0.238
10,GTATATCA,0.132
11,AAAGAGGA,-0.112
12,CGGTCAGC,-0.117
13,AAATTAGC,-0.0299
14,CACCTCCC,-0.194
15,AAACAACT,0.0594
16,CTGCGTGC,0.0739
17,CCCTGCTC,-0.187
18,GGAGACCA,-0.243
19,CCGGACGG,-0.304
20,CTCTAGGC,0.19
21,CCTGAAAC,0.147
22,CACTGATC,-0.196
23,CGCCCTTA,-0.0174
24,CTTTACCC,0.0496
25,CGGCATGA,-0.315

row,Sequence,PBM E-score
1,AGGGTGAA,-0.157
2,CATATTCA,0.108
3,CGGTACGA,-0.155
4,GGCTTGGA,-0.2
5,CCGATGCG,-0.167
6,CAAGTGTG,0.0364
7,AAGGGGCT,0.0322
8,CCCACGCG,-0.336
9,CGAACACG,0.171
10,GTGCTTGA,0.0355
11,GCGTATCC,0.132
12,ACCCATTA,0.01
13,GCCAGTTA,-0.0746
14,GGCGGACA,-0.218
15,ACTCCCCG,0.0263
16,AATTGCCG,-0.145
17,GGTGACCA,-0.218
18,CGACCCTA,-0.148
19,CTTAAATA,0.0129
20,AGTCGTAT,-0.0638
21,CATGGGAA,-0.0237
22,ATGTACGG,0.0566
23,CTTGTGGA,0.119
24,AGCAATAT,0.0959
25,AGAGTCAA,-0.0121

row,Sequence,PBM E-score
1,GGTAATAA,0.163
2,CTAATTAC,0.289
3,ACATGCTA,0.301
4,CGAAGCCG,-0.25
5,AGGTAGCA,-0.133
6,CGCGTTTA,0.175
7,AAGGAGAC,-0.0743
8,AATAAAAA,0.128
9,GAGTTAGA,-0.0609
10,ACCATAGG,0.0494
11,CGAAGTCG,-0.0023
12,GATTATCA,0.0319
13,AGTTGGCG,-0.166
14,CGACGTCG,-0.168
15,GACAGAGA,0.00973
16,GATGGTAA,-0.0348
17,GATCTGGC,0.0157
18,GGGGGCAC,-0.156
19,CAGAGCAC,-0.199
20,ATCCGATG,-0.0714
21,ATCGGTGG,-0.262
22,CCCCTTCC,-0.218
23,ACTAAAGG,0.124
24,ATTCACAA,0.122
25,GAATGGGC,-0.0744

row,Sequence,PBM E-score
1,CGCACGCG,-0.0139
2,GAGTTGAA,-0.143
3,AAAAGGCG,0.278
4,GATAAGGC,0.128
5,AATAAATC,-0.0169
6,CCTAATCC,-0.0698
7,AGTGAACT,-0.0322
8,CTTCCCGC,-0.101
9,CATACGAA,0.0804
10,GTCCCCTA,-0.202
11,AACTGGCT,-0.11
12,AGGGCCCA,-0.343
13,ACCCATCA,0.0754
14,AGAGCGGG,-0.167
15,CGAAGGCC,-0.0438
16,CACATTGC,0.126
17,CTGCCTTA,0.059
18,ATCGGATA,0.0936
19,GCATATAA,0.156
20,CTCGCTCA,-0.157
21,CGGGGAGA,-0.287
22,CCCTAAAG,-0.267
23,CTGAGCTC,-0.152
24,CGTGATCC,-0.146
25,CACCCTAC,0.0564

row,Sequence,PBM E-score
1,CTGGCGCC,0.102
2,TAAATCCA,0.0752
3,ATACGTGG,0.128
4,GGTTTGAC,-0.196
5,CGTAGAAG,0.118
6,CTCCGCAG,-0.144
7,ACTACGAC,-0.00764
8,ATATCTGG,-0.154
9,CTTCATTC,-0.196
10,CGTACCTA,0.395
11,TATTGCAA,0.0287
12,CGCAAAAG,-0.0457
13,CTAGAGAA,-0.102
14,CTTAGAGA,-0.311
15,CGACTCAC,-0.165
16,CATATCCC,0.0119
17,GGAAGCAC,-0.0803
18,AGGGGAAT,-0.169
19,TAAAGTCA,0.0168
20,ATGTAGCA,0.054
21,AAGCAAGG,0.00463
22,TACCAGGA,0.0908
23,AACCTCAG,-0.252
24,GATGCCCA,-0.159
25,GAGGATGC,-0.0988

row,Sequence,PBM E-score
1,TTAGTGAA,0.065
2,ACTATATG,0.0655
3,AGAATCGG,-0.155
4,CAAGGCCC,0.0163
5,CAAAAGAC,-0.0118
6,GACATTGA,0.0627
7,AAATAGCA,-0.0284
8,CTCGCGGA,-0.256
9,CCATCCAG,-0.286
10,ATTTCCAA,0.0549
11,AGCTTTAT,0.0439
12,GGATCCTA,-0.0909
13,ATAGTGCA,0.134
14,ACTGCTAA,-0.301
15,AGCTCACA,0.11
16,CACTAGAC,-0.0752
17,CGTCTGGA,-0.265
18,ACGAGCGT,0.0249
19,AACTTAGA,-0.0415
20,AGATGGGG,-0.235
21,AGCCATGC,0.0307
22,CCGGTTCG,-0.227
23,AGCTGAGG,-0.217
24,CGAGGACC,-0.199
25,CGAGCGCC,-0.0813

row,Sequence,PBM E-score
1,ACACACAA,0.306
2,ACAAACGT,0.106
3,ACAAAGGT,0.0948
4,ACCCCTAA,-0.201
5,AGGCCCCA,-0.081
6,CCAACCGA,-0.0369
7,CCTGAACG,-0.0246
8,CTAACGAG,-0.0675
9,GATGCAGA,-0.229
10,ATCGCTGG,-0.207
11,CTAGGTCA,-0.135
12,CAGTCTAG,-0.214
13,AGTTTCCG,-0.134
14,ATTGGGCA,0.177
15,ACGGCCCA,-0.257
16,AAACACCA,0.00824
17,GTTCAACA,0.203
18,ACGTAGAA,0.258
19,ATCATCTC,-0.0265
20,TGAATCAA,0.162
21,CCATAAGG,-0.155
22,AATCGGCG,-0.0434
23,TAAGGTCA,0.0282
24,ACGTCGCT,-0.0667
25,CACTGCAA,0.0211

row,Sequence,PBM E-score
1,GGTTCCAC,-0.34
2,CGCCCGGA,-0.266
3,AAGTTCCC,-0.309
4,GCCCCAGC,-0.197
5,GTATAGGA,0.112
6,GCGAAGGA,0.0252
7,AGGACTTG,-0.037
8,GAGAACAA,0.0439
9,ACTGACGC,-0.177
10,AAAGTCTA,-0.0516
11,ATTCCACA,0.132
12,CACCTTCC,0.0105
13,CCCATCAA,-0.036
14,TGCTGCCA,-0.0929
15,ACATCGGA,0.144
16,GTCATGCA,0.0879
17,CCCCCACG,-0.183
18,CACTGCCG,-0.193
19,GACTTTAA,0.00571
20,ATCTCTAC,0.00482
21,AGCCTGTG,0.123
22,AGTTATTA,0.146
23,CTATAACC,-0.0507
24,CCATGCGG,-0.127
25,AAATTAAG,0.135

row,Sequence,PBM E-score
1,CAGTGCTA,-0.178
2,CTTCCTGC,-0.0264
3,ACGGGTCT,-0.0726
4,AGGATTTC,-0.0368
5,ACTGCGCC,-0.114
6,ATGGAACC,-0.182
7,AAGTAGCA,-0.0238
8,CCTGTCAG,0.0244
9,GTCCGTTA,0.111
10,ACAACTTA,0.218
11,AGACAGGG,-0.286
12,ACCTTGTG,0.123
13,ATAACAAA,0.172
14,GAAGGGCA,0.0344
15,CAGTCACC,0.248
16,CGAATAGC,-0.19
17,AAAATACA,0.298
18,GGTTTTCA,0.0221
19,GCTTTCCA,0.036
